Variants at the floor of the assay are shown more often than the library holds them.
B1: tRNA (parent)
chain: CUCUCGGUAGCCAAGUUGGUUUAAGGCGCAAGACUUUAAUUUAUCACUACGAAAUCUUGAGAUCGGGCGUUCGACUCGCCCCCGGGAGAUUUUUUCCUCGAGCAA

Variants of: B1
Assay: nonsense suppression (GFP-seq) (ratio to wild type); higher = more function; SUP4oc tRNA, yeast GFP reporter sort-seq
In short: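 Raffinose/galactose medium with 80 mg/L adenine was used to grow yeast carrying genome-integrated tRNA variants (~3% random-mutation library), RFP, and a galactose-driven GFP ochre reporter. Cells went into GFP/RFP bins, which were Illumina-sequenced, and variants with ≥100 reads and ≥30 cells were scored. Nonsense suppression (GFPSEQ) is the per-bin median GFP/RFP weighted by estimated cell share and expressed relative to the unmutated parent tRNA.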

Point of comparison: CUCUCGGUAGCCAAGUUGGUUUAAGGCGCAAGACUUUAAUUUAUCACUACGAAAUCUUGAGAUCGGGUGUCCGACUCGCCCCCGGGAGAUUUUUUCCUCGAGCAA [C68U U71C], nonsense suppression 0.0274. Against it:
- CUCUCGGUAGCCAAGUUGGUUUAAGGCGCAAGACUUUAAUUUAUCACUACGAAAUCUUGAGAUCGGGUGUUCGACUGGCCCCCGGGAGAUUUUUUCCUCGAGCAA [C68U C77G] — lower, ≤ 0.026
- CUCUCGGUAGCCAAGUUGGUUUAAGGCGCAAGACUUUAAUUUAUCACUACGAAAUCUUGAGAUCGGGCAUUCGACUCGCCCCCGGCAGAUUUUUUCCUCGAGCAA [G69A G86C] — lower, ≤ 0.026
- CUCUCGGUAGCCAAGUUGGUUUAAGGCGCAAGACUUUAAUUUAUCACUACGAAAUCUUGAGAUCGGGAAUUCGACUCGCCCCCGGGAGAUUUUUUCCUCGAGCAA [C68A G69A] — lower, ≤ 0.026
- CUCUCGGUAGCCAAGUUGGUUUAAGGCGCAAGACUUUAAUUUAUCACUACGAAAUCUUGAGAUCGGUCGUUCGACUCGUCCCCGGGAGAUUUUUUCCUCGAGCAA [G67U C79U] — lower, ≤ 0.026
- CUCUCGGUAGCCAAGUUGGUUUAAGGCGCAAGACUUUAAUUUAUCACUACGAAAUCUUGAGAUCGGCCGUUCGACGCGCCCCCGGAAGAUUUUUUCCUCGAGCAA [G67C U76G G86A] — lower, ≤ 0.026
- CUCUCGGUAGCCAAGUUGGUUUAAGGCGCAAGACUUUAAUUUAUCACUACGAAAUCUUGAGAUCGGUCGUACGACUCGCCCCCGGGAGAUUUUUUCCUCGAGCAA [G67U U71A] — lower, ≤ 0.026
- CUCUCGGUAGCCAAGUUGGUUUAAGGCGCAAGACUUUAAUUUAUCACUACGAAAUCUUGAGAUCGGGCCUUCGGCUCGCCCCCGGGAGCUUUUUUCCUCGAGCAA [G69C A74G A89C] — lower, ≤ 0.026
- CUCUCGGUAGCCAAGUUGGUUUAAGGCGCAAGACUUUAAUUUAUCACUACGAAAUCUUGAGAUCGGGAGUUCGACUCGCCCUCGGGAGAUUUUUUCCUCGAGCAA [C68A C82U] — lower, ≤ 0.026
- CUCUCGGUAGCCAAGUUGGUUUAAGGCGCAAGACUUUAAUUUAUCACUACGAAAUCUUGAGAUCGGGAGUUCGACUCGCCCACGGGAGAUUUUUUCCUCGAGCAA [C68A C82A] — lower, ≤ 0.026
- CUCUCGGUAGCCAAGUUGGUUUAAGGCGCAAGACUUUAAUUUAUCACUACGAAAUCUUGAGAUCGGGAGUUUGACUCGCCCCCGGGAGAUUUUUUCCUCGAGCAA [C68A C72U] — lower, ≤ 0.026
- CUCUCGGUAGCCAAGUUGGUUUAAGGCGCAAGACUUUAAUUUAUCACUACGAAAUCUUGAGAUCGGGGGUUCGACUCGCACCCGGGAGAUUUUUUCCUCGAGCAA [C68G C80A] — lower, ≤ 0.026
- CUCUCGGUAGCCAAGUUGGUUUAAGGCGCAAGACUUUAAUUUAUCACUACGAAAUCUUGAGAUCGGGACUUCGACUCGGCCCCGGGAGAUUUUUUCCUCGAGCAA [C68A G69C C79G] — lower, ≤ 0.026
- CUCUCGGUAGCCAAGUUGGUUUAAGGCGCAAGACUUUAAUUUAUCACUACGAAAUCUUGAGAUCGGUCGUUCGACUGGCCCCCGGGAGAUUUUUUCCUCGAGCAA [G67U C77G] — lower, ≤ 0.026
- CUCUCGGUAGCCAAGUUGGUUUAAGGCGCAAGACUUUAAUUUAUCACUACGAAAUCUUGAGAUCGGGCCUUCGACUCGACCCCGGGAGAUUUUUUCCUCGAGCAA [G69C C79A] — lower, ≤ 0.026
- CUCUCGGUAGCCAAGUUGGUUUAAGGCGCAAGACUUUAAUUUAUCACUACGAAAUCUUGAGAUCGGGGGUUCGACUCGCCCCCGCGAGAUUUUUUCCUCGAGCAA [C68G G85C] — lower, ≤ 0.026
- CUCUCGGUAGCCAAGUUGGUUUAAGGCGCAAGACUUUAAUUUAUCACUACGAAAUCUUGAGAUCGGGUGUUCGACUCGCCCCGGGGAGAUUUUUUCCUCGAGCAA [C68U C83G] — lower, ≤ 0.026
- CUCUCGGUAGCCAAGUUGGUUUAAGGCGCAAGACUUUAAUUUAUCACUACGAAAUCUUGAGAUCGGGCCUUCGACUCGCUCCCGGGAGAUUUUUUCCUCGAGCAA [G69C C80U] — lower, ≤ 0.026
- CUCUCGGUAGCCAAGUUGGUUUAAGGCGCAAGACUUUAAUUUAUCACUACGAAAUCUUGAGAUCGGGCAUUCGACUCGCCCCCGGGAAAUUUUUUCCUCGAGCAA [G69A G88A] — lower, ≤ 0.026
- CUCUCGGUAGCCAAGUUGGUUUAAGGCGCAAGACUUUAAUUUAUCACUACGAAAUCUUGAGAUCGGUCGCUCGACUCGCCCCCGGGAGAUUUUUUCCUCGAGCAA [G67U U70C] — lower, ≤ 0.026
- CUCUCGGUAGCCAAGUUGGUUUAAGGCGCAAGACUUUAAUUUAUCACUACGAAAUCUUGAGAUCGGUCGUUCGACUCACCCCCGGGAGAUUUUUUCCUCGAGCAA [G67U G78A] — lower, ≤ 0.026
- CUCUCGGUAGCCAAGUUGGUUUAAGGCGCAAGACUUUAAUUUAUCACUACGAAAUCUUGAGAUCGGUCGUUCGACUCGCCCCCGGGGGAUUUUUUCCUCGAGCAA [G67U A87G] — lower, ≤ 0.026
- CUCUCGGUAGCCAAGUUGGUUUAAGGCGCAAGACUUUAAUUUAUCACUACGAAAUCUUGAGAUCGGGCAUUCGACUCGCCCCGGGGAGAUUUUUUCCUCGAGCAA [G69A C83G] — lower, ≤ 0.026
- CUCUCGGUAGCCAAGUUGGUUUAAGGCGCAAGACUUUAAUUUAUCACUACGAAAUCUUGAGAUCGGGGGUUCGACGCGCCCGCGGGAGAUUUUUUCCUCGAGCAA [C68G U76G C82G] — lower, ≤ 0.026
- CUCUCGGUAGCCAAGUUGGUUUAAGGCGCAAGACUUUAAUUUAUCACUACGAAAUCUUGAGAUCGGUCGUUCGACUCGCCUCAGGGAGAUUUUUUCCUCGAGCAA [G67U C81U C83A] — lower, ≤ 0.026
- CUCUCGGUAGCCAAGUUGGUUUAAGGCGCAAGACUUUAAUUUAUCACUACGAAAUCUUGAGAUCGGGGUUCCGACUCGCCCCCGGGAGAUUUUUUCCUCGAGCAA [C68G G69U U71C] — lower, ≤ 0.026
- CUCUCGGUAGCCAAGUUGGUUUAAGGCGCAAGACUUUAAUUUAUCACUACGAAAUCUUGAGAUCGGGUGUUCGACUCGCCACCGGGAGAUUUUUUCCUCGAGCAA [C68U C81A] — lower, ≤ 0.026

— the RNAGym collection of RNA variant scans (doi:10.1101/gad.245936.114)
